The record followed here is article PMC4336329 (PLoS ONE, 2015).

Among all 310,000 compounds or so, about 14,000 (4.5%) showed an effect of 50% or more. Effects have a minus sign here. The list shows a part of the results.
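Further: peak tail current of the secondary pulse compared with the same well before compound.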

The target of the experiment is human ether-à-go-go-related gene (hERG) potassium channel (human, UniProt Q12809). Put plainly: primary screen, population patch clamp on CHO cells stably expressing hERG.
Chain of human ether-à-go-go-related gene (hERG) potassium channel (Q12809 whole entry, looked up): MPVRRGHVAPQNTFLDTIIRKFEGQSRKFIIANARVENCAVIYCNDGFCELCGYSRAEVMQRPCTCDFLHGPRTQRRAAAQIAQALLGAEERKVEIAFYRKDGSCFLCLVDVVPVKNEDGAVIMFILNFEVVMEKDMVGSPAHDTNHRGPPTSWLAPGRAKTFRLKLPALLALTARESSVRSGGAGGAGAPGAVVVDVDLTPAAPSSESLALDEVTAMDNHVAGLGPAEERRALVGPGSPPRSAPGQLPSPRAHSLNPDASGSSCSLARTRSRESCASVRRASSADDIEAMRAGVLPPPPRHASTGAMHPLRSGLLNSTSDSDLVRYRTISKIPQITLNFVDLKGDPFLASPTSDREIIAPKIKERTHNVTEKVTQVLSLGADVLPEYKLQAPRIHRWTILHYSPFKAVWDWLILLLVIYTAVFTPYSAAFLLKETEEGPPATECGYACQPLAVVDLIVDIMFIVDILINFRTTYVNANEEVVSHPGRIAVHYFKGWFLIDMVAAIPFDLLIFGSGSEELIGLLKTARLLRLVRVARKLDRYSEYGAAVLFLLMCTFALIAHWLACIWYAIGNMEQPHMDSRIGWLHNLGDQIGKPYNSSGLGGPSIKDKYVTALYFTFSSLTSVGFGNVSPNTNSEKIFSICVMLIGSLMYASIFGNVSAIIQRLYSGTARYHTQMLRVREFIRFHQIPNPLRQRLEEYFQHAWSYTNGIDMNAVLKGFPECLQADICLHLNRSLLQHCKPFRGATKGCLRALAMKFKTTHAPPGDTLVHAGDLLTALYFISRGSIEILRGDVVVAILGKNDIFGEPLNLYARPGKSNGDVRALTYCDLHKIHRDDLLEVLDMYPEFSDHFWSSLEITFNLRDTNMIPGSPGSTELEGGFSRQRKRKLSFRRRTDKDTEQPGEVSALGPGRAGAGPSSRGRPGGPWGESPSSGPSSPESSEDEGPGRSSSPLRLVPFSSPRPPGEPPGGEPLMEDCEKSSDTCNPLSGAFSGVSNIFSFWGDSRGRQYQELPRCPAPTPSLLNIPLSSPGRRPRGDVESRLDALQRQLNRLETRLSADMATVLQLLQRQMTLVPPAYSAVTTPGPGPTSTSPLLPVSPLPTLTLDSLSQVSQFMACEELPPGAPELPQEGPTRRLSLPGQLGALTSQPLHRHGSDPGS
For the molecule `CCc1ccc(C(=O)CSc2nc(N)cc(=O)[nH]2)cc1`, the “hERG current change (%, negative = inhibition) at 10uM” value was found to be 22.6%.
With `O=C1CC(c2ccc3c(c2)OCO3)C2=C(CCCC2=O)N1` (stereo not shown), the “hERG current change (%, negative = inhibition) at 10uM” value is on record as -5.08%.
For `CCC(C)[C@H](N)c1nnc(SCC(=O)Nc2ccc(C)cc2C)o1` (stereo partly shown), the “hERG current change (%, negative = inhibition) at 10uM” value is -17.4%.
As to `COc1ccc(C=O)cc1COc1ccc(C)cc1[N+](=O)[O-]`, the “hERG current change (%, negative = inhibition) at 10uM” value was found to be 2.06%.
As to `COc1ccc2[nH]c3nc(SC(C)C)nnc3c2c1`, the “hERG current change (%, negative = inhibition) at 10uM” value amounted to 5.34%.
As for `CCOc1ccc(NC(=O)CN(C)C(=O)CCC2CCCCC2)cc1OCC`, the “hERG current change (%, negative = inhibition) at 10uM” value is given as -24.2%.
Regarding `CC(NC(=S)NCCCN1CCOCC1)C12CC3CC(CC(C3)C1)C2` (stereo not shown), the “hERG current change (%, negative = inhibition) at 10uM” value came out at 6.47%.
On to `CC(C)(C)OC(=O)NCc1ccc(NC(=O)c2nc[nH]c2C(=O)N[C@@H](Cc2ccccc2)C(=O)OCc2ccccc2)cc1`, for which the “hERG current change (%, negative = inhibition) at 10uM” value worked out at 11.4%.
With `Fc1ccc(NCc2cccnc2)cc1`, the “hERG current change (%, negative = inhibition) at 10uM” value was -2.54%.
Then `COc1cccc(CNC(=O)C2CSC3(C)CCC(=O)N23)c1` (stereo not shown), with 6.82%.
Then `CC(C)(C)C(=O)Nc1ccc(C(=O)N/N=C/C2CC3C=CC2C3)cc1` (stereo not shown), with 6.15%; and `CCS(=O)(=O)c1ccc(C(=O)NC2CC2)c(Cl)c1Cl`, with 3.31%; and `CCOC(=O)c1ccc(OCC2NCCc3cc(OC)c(OC)cc32)cc1` (stereo not shown), with -16.5%.
To `CCCC(=O)NC(c1ccc(Cl)cc1)c1ccc2cccnc2c1O` (stereo not shown) belongs -43.7%.
Take `O=C(CCNC(=O)c1ccccc1Cl)NCc1ccco1`: the “hERG current change (%, negative = inhibition) at 10uM” value was -5.42%.
To `CCc1cccc(NS(=O)(=O)c2csc(C(N)=O)c2)c1` belongs -30.1%; to `COc1ccc(N(CC(=O)NCc2ccc(Cl)cc2)S(=O)(=O)c2c(C)noc2C)cc1`, 15.1%.
With `Cc1[nH]c2ccccc2c1C(=O)C(=O)N1CCOCC1`, the “hERG current change (%, negative = inhibition) at 10uM” value is on record as -6.48%.
To `CCOC(=O)Nc1ccc(S(=O)(=O)NCCCN2CCOCC2)cc1` belongs -1.82%.
For the molecule `O=C(COC(=O)CNC(=O)c1ccc([N+](=O)[O-])o1)Nc1ncc(Cl)cc1Cl`, the “hERG current change (%, negative = inhibition) at 10uM” value is given as -54.9%.
`O=C(NCCCNC(=O)c1cccs1)c1cccs1`: the “hERG current change (%, negative = inhibition) at 10uM” value came out at 4.55%.
As to `Cc1cnc(C(=O)OCC(=O)c2c[nH]c3ccccc23)cn1`, the “hERG current change (%, negative = inhibition) at 10uM” value was determined as 8.2%.
To `Cc1ccc(NC(=O)c2ccc(C(C)(C)C)cc2)cc1[N+](=O)[O-]` belongs 1.09%; to `CC(C)(C)CN1CCNC[C@H]1Cc1ccc(O)cc1`, 1.67%.
As to `Cc1nn(CCC(=O)Nc2cccc(C#N)c2)c(C)c1S(=O)(=O)N1CCCCC1`, the “hERG current change (%, negative = inhibition) at 10uM” value was -1.67%.
